Assay results: publication PMC4336329 (PLoS ONE, 2015)
In all, about 310,000 compounds went through this assay and about 14,000 (4.5%) showed an effect of 50% or more. Effects have a minus sign here. This is one part of the list.

Target: human ether-à-go-go-related gene (hERG) potassium channel (human, UniProt Q12809)
Test: primary screen, population patch clamp on CHO cells stably expressing hERG
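Note: peak tail current of the secondary pulse compared with the same well before compound.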

Sequence of human ether-à-go-go-related gene (hERG) potassium channel (Q12809 whole entry, looked up): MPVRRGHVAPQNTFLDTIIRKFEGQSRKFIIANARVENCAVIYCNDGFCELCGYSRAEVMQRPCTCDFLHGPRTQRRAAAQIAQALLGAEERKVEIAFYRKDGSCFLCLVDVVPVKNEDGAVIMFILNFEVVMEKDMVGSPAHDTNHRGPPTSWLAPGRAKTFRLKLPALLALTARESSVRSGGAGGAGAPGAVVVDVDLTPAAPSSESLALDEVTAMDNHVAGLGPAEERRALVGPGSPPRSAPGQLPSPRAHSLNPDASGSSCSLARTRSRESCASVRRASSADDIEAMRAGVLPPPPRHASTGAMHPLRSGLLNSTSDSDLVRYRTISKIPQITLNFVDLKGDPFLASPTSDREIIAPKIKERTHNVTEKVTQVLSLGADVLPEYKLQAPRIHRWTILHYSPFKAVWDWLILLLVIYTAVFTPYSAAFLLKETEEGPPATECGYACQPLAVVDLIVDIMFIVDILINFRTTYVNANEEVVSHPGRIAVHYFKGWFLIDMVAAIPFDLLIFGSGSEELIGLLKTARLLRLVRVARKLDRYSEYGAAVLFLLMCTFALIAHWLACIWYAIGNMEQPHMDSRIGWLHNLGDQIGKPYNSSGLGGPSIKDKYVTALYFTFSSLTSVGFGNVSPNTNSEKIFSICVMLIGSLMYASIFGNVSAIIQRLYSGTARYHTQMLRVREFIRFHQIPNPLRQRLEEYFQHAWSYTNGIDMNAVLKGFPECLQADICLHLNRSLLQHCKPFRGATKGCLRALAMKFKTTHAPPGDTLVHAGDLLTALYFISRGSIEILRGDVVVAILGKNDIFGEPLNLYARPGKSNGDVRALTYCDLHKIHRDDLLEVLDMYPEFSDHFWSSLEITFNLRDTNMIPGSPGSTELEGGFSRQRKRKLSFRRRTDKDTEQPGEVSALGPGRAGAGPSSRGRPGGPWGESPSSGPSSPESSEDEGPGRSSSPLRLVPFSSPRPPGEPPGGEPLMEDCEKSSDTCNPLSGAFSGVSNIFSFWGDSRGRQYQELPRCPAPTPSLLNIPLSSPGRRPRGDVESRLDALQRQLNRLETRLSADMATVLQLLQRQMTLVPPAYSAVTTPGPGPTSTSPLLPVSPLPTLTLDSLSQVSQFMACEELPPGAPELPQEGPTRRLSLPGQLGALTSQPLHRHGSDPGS

Row | Compound | hERG current change (%, negative = inhibition) at 10uM
1 | NC(=O)c1ccc(N2CCN(S(=O)(=O)c3ccccc3)CC2)c([N+](=O)[O-])c1 | -58.7%
2 | CCOCC(=O)Nc1cc(-c2cn3cccnc3n2)ccc1C | 6.69%
3 | COC(=O)c1ccc(C(=O)Nc2ccc3c(c2)C(=O)NC3=O)cc1 | 11.9%
4 | COc1ccc(OCC(=O)Nc2ccccc2C(=O)NC2CC2)cc1 | -13.4%
5 | COC(=O)c1c(NC(=O)C2CC2)sc2c1CCN(C(C)=O)C2 | -25.7%
6 | O=C(O)C(=O)O.O=S(=O)(c1ccc2ccccc2c1)N1CCN(C2Cc3ccccc3C2)CC1 | -21.1%
7 | CCOC(=O)CSc1nnc(NC(=O)C2CC(=O)N(c3ccc(F)cc3)C2)s1 (centres unmarked) | 5.4%
8 | O=C(CSc1nc2ccsc2c(=O)n1-c1ccccc1)N1CCCC1 | 0.514%
9 | Cc1ccc(C(=O)NCCc2ccccn2)cc1S(=O)(=O)N1CCOCC1 | -11%
10 | CCn1c(C)nc2cc(C(=O)N/N=C/c3ccc(OC)c(O)c3)ccc21 | 3.24%
11 | CC(C)Oc1ccc(CCN)cc1Cl.Cl | -6.32%
12 | CC(NS(=O)(=O)c1ccc(F)cc1)C(=O)Nc1ccc2c(c1)OCCO2 (centres unmarked) | 13.2%
13 | Cc1ccc(C)c(S(=O)(=O)NCC(=O)N2CCCC2)c1 | 11.1%
14 | Cc1cc(-c2cccnc2)c(C#N)c(SCC#N)n1 | -4.94%
15 | CCOC(=O)c1cc(NC(=O)N(C)C2CCCCC2)c(C)nc1C | 10.6%
16 | O=C(Nc1ccc(F)cc1)C(Sc1nnc2ccccn12)c1ccccc1 (centres unmarked) | 4.56%
17 | O=S(=O)(c1cccc(C(F)(F)F)c1)N1CCN(c2ccccc2)CC1 | -14.4%
18 | COc1ccc(OC)c(CNC(=O)CCC(=O)N2Cc3ccccc3Oc3ncccc32)c1 | -26.6%
19 | Cc1ccc(NC(=O)COC(=O)c2ccccc2Nc2ccccc2)cc1 | 7.83%
20 | COC(=O)n1ccc(C(=O)Nc2ccccc2F)n1 | -8.09%
21 | Cc1nc(Nc2ccc(F)cc2)[nH]c(=O)c1CCC(C)C | -1.15%
22 | CCN1C(=O)N(CC)C2C1N(CO)C(=O)N2CO (centres unmarked) | 16.9%

Row | Compound | hERG current change (%, negative = inhibition) at 10uM
23 | CCn1c(O)c(C=Nc2cc(Cl)ccc2Cl)c(=O)n(CC)c1=O | 3.69%
24 | COc1ccc(COc2cc(-c3cccc(OC)c3)nc3ccc(NC(=O)c4ccc(Cl)cc4)cc23)cc1 | 8.61%
25 | COc1cc(/C=N/NC(=S)Nc2cccc(S(=O)(=O)N(C)C)c2)cc(OC)c1O | -20.5%
26 | CC(C)(C)c1csc(NC(=O)c2ccc3nccnc3c2)n1 | -57.2%
27 | Cc1ccc2sc(N3CCN(C(=O)C4=COCCO4)CC3)nc2c1C | -15.6%
28 | CCCN(CCC)CCNC(=O)Cn1cnc2sc(C)c(S(=O)(=O)N3CCOCC3)c2c1=O | 11.3%
29 | CCCCOc1ccc(N=Cc2ccc[nH]2)cc1 | 24.5%
30 | O=C(NNC(=O)c1ccccc1F)c1ccc2[nH]c(=O)c(=O)[nH]c2c1 | 11.1%
31 | Cc1cc(NCc2ccccc2Cl)n2nnnc2n1 | 19.6%
32 | O=C(Nc1cccc(-c2nc3cccnc3s2)c1)c1cccnc1Cl | -21.8%
33 | O=C(Nc1ccncc1)c1ccccc1-c1ccccc1 | 6.47%
34 | COc1ccc(-c2cc(C(F)(F)F)nc(N3CCN(Cc4ccccc4)CC3)n2)cc1OC | 21.2%
35 | COc1ccc(C2c3ccsc3CCN2C(=O)NC(C)(C)C)cc1 (centres unmarked) | -10.2%
36 | CS(=O)(=O)NCc1nnc(SCC(=O)NC2CCCCC2)n1-c1ccc(F)cc1 | 11.6%
37 | Nc1c(C(=O)CSc2nnc(Nc3ccc(F)cc3)s2)c(=O)[nH]c(=O)n1C1CC1 | 0.202%
38 | CCN1CCCC1CNC(=O)c1[nH]c2ccc(OC)cc2c1C (centres unmarked) | -51.2%
39 | Cc1onc(C(=O)Nc2ccccc2C(F)(F)F)c1[N+](=O)[O-] | 18.6%
40 | O=C1CN(C(=O)COC(=O)c2cccnc2Cl)c2ccccc2N1 | 14.5%
41 | CSc1nnc(-c2ccc([N+](=O)[O-])cc2)o1 | 16.8%
42 | O=C(NCC1CCCO1)c1ccc(NC(=O)c2cccc(Br)c2)cc1 (centres unmarked) | 16.4%
43 | Cc1ccc(NC(=O)c2ccc3c(=O)n4c(nc3c2)CCCCC4)cc1F | -24.6%
44 | COc1cccc(CC(=O)Nc2nc3c(s2)C(=O)CC(C)(C)C3)c1 | 5.12%
